# Reference: the supplement of paper PMC3334620
# The full ranking holds about 33,000 sequences; the median of “E-score (-0.5 to 0.5)” is about -0.013, and the highest 2% start at about 0.3. This is one part of the list.
# Target: T1, Msn1 (UniProt P22148)
# T1 sequence: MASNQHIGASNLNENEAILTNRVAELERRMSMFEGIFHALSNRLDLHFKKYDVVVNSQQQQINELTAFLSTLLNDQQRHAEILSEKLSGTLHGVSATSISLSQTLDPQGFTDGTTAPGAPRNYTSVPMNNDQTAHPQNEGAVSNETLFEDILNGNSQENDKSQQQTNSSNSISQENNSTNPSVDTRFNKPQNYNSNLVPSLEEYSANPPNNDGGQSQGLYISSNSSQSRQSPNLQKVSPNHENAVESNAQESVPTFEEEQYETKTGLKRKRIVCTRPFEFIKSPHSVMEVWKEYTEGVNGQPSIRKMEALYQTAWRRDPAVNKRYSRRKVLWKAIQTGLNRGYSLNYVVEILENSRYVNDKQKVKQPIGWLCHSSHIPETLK
# Assay: PBM E-score (8-mer binding enrichment) (E-score (-0.5 to 0.5)); higher = stronger / more preferred TF binding; most listed sequences are background and not binding sites
# Conditions: protein concentration: 200 nM; construct: GST-full length
# Protocol: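 Universal 'all 10-mer' protein binding microarrays (Agilent AMADID 015681) probed with GST-tagged S. cerevisiae TFs (full-length or DBD) made by in vitro transcription/translation (PURExpress), about 100-200 nM. Bound TF was detected with fluorescent anti-GST. Each ungapped 8-mer (which stands for itself and its reverse complement) is scored by the PBM enrichment score (E-score), a modified Wilcoxon-Mann-Whitney statistic from -0.5 to +0.5, computed with the Universal PBM Analysis Suite. Scale: above 0.35 generally sequence-specific binding.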
row,Sequence,PBM E-score
1,ACCAGAAA,-0.00853
2,ACTATCTG,-0.00414
3,AAGTGCAT,-0.0129
4,CCCTCCAA,-0.16
5,ACAAGGAG,0.0113
6,ATTCGCAG,0.166
7,AAGTTAGA,0.236
8,ACAAGATG,0.15
9,TAATCCGA,0.0246
10,CTTAAAAG,0.0822
11,CGAGATAG,-0.11
12,CCATACAC,0.104
13,AAGCCACG,-0.112
14,AGCGCGAG,-0.0445
15,AACGGCTG,-0.0272
16,AAATTGGC,-0.118
17,CTAGGATA,-0.13
18,ACGCTATG,-0.0165
19,CCATTCCC,-0.317
20,CGTGAACG,-0.0459
21,AAAACGTA,0.00826
22,CGTTCACC,-0.00692
23,ATTGATTG,0.0853
24,ATAAATTG,0.225
25,GCTTTAAC,0.0829

row,Sequence,PBM E-score
1,AAAACATA,0.0922
2,AGTATCTC,0.0248
3,AATACGTG,0.0479
4,GACGGATC,0.114
5,GACTTTGC,0.188
6,CCCGCGCG,0.178
7,GAGAGAAA,0.00902
8,GCCAGCTA,-0.128
9,CGGGTGAA,0.099
10,GGCCGGAC,0.158
11,ATCCAGGG,-0.162
12,AGTCCGGG,0.0714
13,CGTCGCCA,-0.0547
14,CTGCCTAC,0.017
15,TAACCGTA,-0.089
16,GGACCCAA,-0.153
17,GCTATTCA,-0.0315
18,TAATTAGA,0.216
19,AATGCCGG,0.0952
20,GTCAGCAA,0.0149
21,ACCATCGA,-0.0448
22,AGCCATTA,0.105
23,ACACGTTC,-0.0287
24,TGACATCA,0.257
25,AAGAAACC,-0.0163

row,Sequence,PBM E-score
1,ACGGCCGG,0.0031
2,ACATTTGA,0.311
3,TAAGCGAA,-0.0548
4,AATCTTGC,0.0456
5,CTACATAA,-0.237
6,GTTGCAAC,0.0496
7,CATAGGCC,-0.112
8,CCTGGAGC,-0.216
9,ACTATTAC,0.0424
10,TATAACCA,0.0511
11,CTAAAGTC,0.0857
12,CTTGGCGA,-0.19
13,AAGAGCTA,-0.123
14,AGACCAAC,-0.123
15,CAAGGATG,0.0518
16,GGCTCAAA,0.0121
17,CCAACCTC,-0.183
18,ACTCGCCC,-0.215
19,AAAAATAT,0.208
20,GCGATCAC,-0.129
21,AACACCAC,-0.00468
22,GCTGAAAA,0.0171
23,CGGATCCA,0.0747
24,AGTAGTCA,-0.0439
25,GAAGGCTA,-0.174

row,Sequence,PBM E-score
1,CTATGAAC,0.0959
2,CTCTTTTC,-0.0127
3,CTGAGAAA,0.133
4,CTCCCGGA,-0.105
5,AAGATGCG,0.0848
6,AACACGAA,0.0949
7,GACGTGTA,0.0955
8,AGAGGACT,-0.21
9,AGGTTTAC,-0.0715
10,CTCCCCTC,-0.138
11,CACGACAA,0.256
12,AAGTACAA,0.306
13,ATCCGATA,0.128
14,GGGTATCA,0.0836
15,ATGCGCGA,-0.0619
16,TCGATCCA,0.00147
17,ACTGGAGA,-0.0757
18,ATCACAAG,-0.0096
19,ATGCTTGA,-0.0597
20,ATCAGCAA,-0.0713
21,AAAGACCC,-0.137
22,GCTATACC,-0.164
23,AGCACCTG,-0.0542
24,CGCTCACC,0.00051
25,AATGCCAA,0.0776

row,Sequence,PBM E-score
1,ACCTGCCC,-0.0652
2,AACGGTCC,0.0385
3,AAACAAGC,0.0674
4,ACACTCAA,0.14
5,AAGCTACC,-0.0471
6,TACTCGCA,0.0491
7,GTTACGGA,0.0434
8,AACTCTTA,0.0384
9,GGCCCGAC,-0.126
10,GACATCGA,0.208
11,ATGTATTA,0.169
12,CGCACCGC,-0.142
13,ATCGAGGA,-0.00377
14,CGCACGCC,0.0526
15,ATTTGTTC,0.297
16,ACTCTCTG,-0.15
17,GGTCGTAA,-0.0297
18,CCGGGACA,0.457
19,GCTGTACC,-0.0566
20,AAGGTGCG,-0.0808
21,AGGATTAG,0.0805
22,AAAGCAGT,0.0385
23,GAGACAAC,0.203
24,CTTATCTC,0.0207
25,AACGAGGG,-0.175

row,Sequence,PBM E-score
1,CAGACCTG,-0.159
2,AGGTTAAT,0.0557
3,ACTCAGAA,0.0481
4,AGGCATAC,-0.179
5,ACATTCAA,0.134
6,AATAACCT,-0.011
7,GAGTGTCC,0.232
8,GAGGTGAC,0.181
9,CCATCATA,-0.161
10,AGCTTACC,-0.106
11,AATGGCCC,-0.275
12,CGGAATGC,-0.0379
13,ACGTCACG,0.00154
14,GTAGATCA,0.00307
15,GAGATAAC,0.103
16,CGAGTAGC,0.0335
17,GTAAGTAA,0.0687
18,ATACAGAC,0.203
19,ATAGAGAC,0.215
20,CGGCGACC,-0.182
21,AGCTTCAC,-0.181
22,CTTATTCC,-0.0482
23,TACCTGGA,0.0334
24,TGAAGTAA,0.0331
25,AAAAGATC,-0.00188

row,Sequence,PBM E-score
1,AGCGCCAC,-0.254
2,ATCAGGAG,-0.0236
3,GAGCTCCC,-0.209
4,ACTTAACC,0.0614
5,GTAATCTA,0.3
6,CACCATGG,-0.25
7,ACGCGCTC,0.0922
8,ATCTACAA,-0.0675
9,AAGGGGAC,0.101
10,ACATGCGC,0.296
11,AATAAATT,0.219
12,TGCTATAA,0.0592
13,AAGTGGAC,0.209
14,ATAGTGAG,-0.0677
15,CACATGCA,-0.0632
16,AGCCTAAA,0.0544
17,ATCAGGTA,0.082
18,CCCTGTCG,-0.16
19,AAGTGGGT,-0.157
20,AAGAGTAG,-0.0872
21,ACATTCGC,0.216
22,AAGCGCGT,0.0286
